The supplement of paper PMC11417369
The list shows a part of the results.

Test system: PfSIP2 AP2 domain 1 (GST-tagged)
Test: gcPBM binding intensity (ln(normalized median fluorescence intensity)); higher = stronger DNA binding
Procedure, shortened: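 Alexa488 anti-GST antibody, scanned at 488 nm, detected GST-tagged P. falciparum DNA-binding domains that had been expressed in E. coli and incubated for 1 h on an Agilent 4 × 180k array. The array carried primer-extended double-stranded 36-bp intergenic genomic probes and negative controls. Binding intensity is the highest Masliner-normalised natural-log median intensity across replicate spots of either orientation of each probe.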

Sequence | gcPBM binding intensity (ln)
TACAGACATACATACACACATACATATATATATATA [CACACA_site1940] | 9.51
TTAAGTCATAAATAAAGTACATAAATATAATATATA [XGTACX_site6304] | 7.16
ATGTAAATGTTATTATGTACATATTTATTCTTCAAA [XGTACX_site7377] | 6.95
TCCAATTAAATATATGAACACACATGTGAACTTTCT [CACACA_site9318] | 6.78
GGGGGTAGGGGAAGAAGTACAATGATCACTACAGTA [XGTACX_site1169] | 8.75
TTTTTTATTAAAAGCGAAAAAAATGAAAACTTTTTT [GTGCAC_negctrl_site605] | 6.61
TTTTTAATTAACTTTGTAAACTTATATATATATATA [TGCATGCA_negctrl_site311] | 9.33
TTAAAGCACCCATGCACACACACAAGGGAAAAGAAA [CACACA_site4289] | 9.41
AAGGAATATTAAGTGGGTACTAAAAAAAAATTAATT [XGTACX_site331] | 7.01
GAAGTAGATGGAAAAGTGCACTGTAATGGTTATATT | 10.3
TGTATATAGAAACATACACACATATTAATTTTACAT [CACACA_site3126] | 7.09
ATTTTTAATCATTTACAACCTAGTGATTATACAAAT [CACACA_negctrl_site1089] | 6.92
CGTATGCGTATATACACACCCACGTATATATATAAA [CACACA_site3200] | 7.09
ATATAATAATTGTACACATGCACACACAAATATTAT [TGCATGCA_site204] | 7.87
ATAGCCAAAAATCATGCACACCTAAAAAAAAAAAAA [CACACA_site8826] | 7.21
TATATTTATGTATATGTGCACATAAATTTAAGAATG [GTGCAC_site9512] | 8.33
GTATATATATTTGTACGTACATATTGTTGTAAACAC [XGTACX_site8833] | 7.37
AAGAGAGACATCAACACACATACGTATGTATAGAAA [CACACA_site1397] | 6.74
TTTTTTATTGTGATACGTATATTATTTTATGATTAA [GTGCAC_negctrl_site202] | 7.02
TTCATTTTAATAATATGTACATAATATATTTAAAAA [XGTACX_site634] | 7.43
ATTTTTTTTTTTATAGTGGAACCACATTTGCCATTT [CACACA_negctrl_site1247] | 6.88
TATTAAATGAAACAAACACACATAGCCTTTAAATAT [CACACA_site1560] | 7.02

Sequence | gcPBM binding intensity (ln)
TTAGGACAAAAAAAAATAAAAATAAAATAAAATAAT [CACACA_negctrl_site1613] | 6.77
AAATTATATATATTTACATGCAATATAATGAAATAA [TGCATGCA_site229] | 6.78
ATAAAATAAAACAGAGCACACATTTTATTTACATTC [CACACA_site696] | 6.89
ATATATATATCATATTGTACATATTATTGTATAATC [XGTACX_site5020] | 7.87
ATATAAACATGTTTGTGTACGTAATATGAAAAATAA [XGTACX_site8157] | 7.4
GTATGTATAATATACACACTCACAAGCATTCAAATA [CACACA_site267] | 6.91
TTGTTTTTAAGAAAAACACACACTCCTGTTATTTTA [CACACA_site9230] | 6.68
AAATATTATACAAAAAAAAAAAAAAAAAAAATATAT [CACACA_negctrl_site52] | 6.84
ATTTTGTATATATTTTGTACATATTTTGTATATATT [XGTACX_site885] | 6.99
AAAAATAAAAAGAATTGTACATATAAATCATATACA [XGTACX_site6860] | 6.8
GACCCAATGAAAAGGTCACACATTTTTTCTTTTCGA [CACACA_site5074] | 6.71
TAAAAATATATAAACAGTACATAAATTAAATAAATA [XGTACX_site6962] | 6.78
GTTAAAATTTGTCAATGTACAGAAATAATAAAAAAA [XGTACX_site1879] | 7.13
AAAGTTTTTACCAAGTGTACATATATATATATATAT [XGTACX_site5786] | 9.13
GTTTATTTATTTTATGTGCACATATAACAAAAAAAA | 9.16
TATTTTTTTTAGCGTACATGCAAAAAAAAAAAAAAA [TGCATGCA_site555] | 7.58
TTTTTTCTTTAATACTCAATATGATAAAAGTAACAC [XGTACX_negctrl_site163] | 7.3
ACAAAGTAAAATAATGCATGTAGGTATACATAATTA [TGCATGCA_site607] | 6.64
GTGCTAAAAGTATATGCACACACATATATATGCACA [CACACA_site8472] | 9.97
AATATTTTATATAAATGTACATTTATGAATAATATA [XGTACX_site8477] | 7.1
ACATATTTCCAATAATGTACATACAAAATAAGAATG [XGTACX_site2659] | 7.23
TGTTCATTTATTTACTTACACACTTTATATATGTGG [CACACA_site1410] | 6.94
